The source of these data is the supplement of paper PMC3334620.

Whole data set: some 33,000 sequences, median “E-score (-0.5 to 0.5)” near -0.032, cut for the highest 2% near 0.36. The list shows a part of the results.

This assay deals with T1, Sko1 (UniProt Q02100).
T1 sequence: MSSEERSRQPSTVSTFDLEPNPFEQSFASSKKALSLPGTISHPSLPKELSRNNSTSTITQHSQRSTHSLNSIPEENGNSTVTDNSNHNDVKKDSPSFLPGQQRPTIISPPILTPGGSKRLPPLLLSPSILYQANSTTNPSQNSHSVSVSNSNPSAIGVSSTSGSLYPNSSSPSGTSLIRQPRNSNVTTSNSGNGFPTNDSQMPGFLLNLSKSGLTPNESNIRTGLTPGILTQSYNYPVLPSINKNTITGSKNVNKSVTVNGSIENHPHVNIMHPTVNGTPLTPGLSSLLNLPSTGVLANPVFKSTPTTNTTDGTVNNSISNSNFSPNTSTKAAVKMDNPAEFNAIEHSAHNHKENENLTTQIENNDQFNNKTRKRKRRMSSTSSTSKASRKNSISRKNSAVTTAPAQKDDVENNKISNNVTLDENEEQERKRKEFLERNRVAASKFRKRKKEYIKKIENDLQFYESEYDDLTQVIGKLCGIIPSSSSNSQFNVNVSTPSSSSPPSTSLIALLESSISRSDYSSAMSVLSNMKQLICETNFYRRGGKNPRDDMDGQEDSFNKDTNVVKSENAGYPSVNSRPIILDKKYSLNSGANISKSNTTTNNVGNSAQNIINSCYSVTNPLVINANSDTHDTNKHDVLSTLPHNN
The assay is described as follows: PBM E-score (8-mer binding enrichment) (E-score (-0.5 to 0.5)); higher = stronger / more preferred TF binding; most listed sequences are background and not binding sites. The settings on record: protein concentration: 200 nM; construct: GST-full length. The gist of the method: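 E-scores (a modified Wilcoxon-Mann-Whitney statistic) were assigned by the Universal PBM Analysis Suite to every ungapped eight-base word pooled with its reverse complement. The input came from universal all-10-mer Agilent arrays made double-stranded by primer extension and probed with GST-tagged yeast transcription factors at about 100-200 nM. Fluorescent anti-GST detected bound protein, and masliner normalised the scans.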
On to GCAGAGAA, for which the “PBM E-score” value was found to be 0.0458.
Turning to GCCGGTCC, the “PBM E-score” value was -0.412.
Regarding ATACGGCA, the “PBM E-score” value was found to be 0.153.
In the case of AACACTAG it was -0.0607; in that of ACGTGTAT, 0.414; in that of CCGCGCTA, -0.099.
Consider CTAGATAA, for which the “PBM E-score” value is 0.0553.
In the case of ATCCTCTG it was -0.0709; in that of AATTGCAT, 0.115; in that of GCGATACA, 0.0437.
For ATGGCCCC the value was -0.362.
For CGAAGTAA the value was 0.15.
For the sequence ACATCTGA, the “PBM E-score” value is -0.139.
As for ATATCAAT, the “PBM E-score” value amounted to 0.245.
In the case of CAGAATTA it was 0.097.
Regarding CAGTGGCA, the “PBM E-score” value is -0.165.
With AGGGATGA, the “PBM E-score” value worked out at 0.0451.
Consider CAGCAAGG, for which the “PBM E-score” value is -0.16.
In the case of GAGGAAGA it was -0.0544; in that of ACAAATGT, 0.078; in that of GTTCCATA, -0.152.
As to AGCTGCAT, the “PBM E-score” value was 0.0894.
CACCTACG: the “PBM E-score” value was 0.336.
With ATACTAGA, the “PBM E-score” value was 0.219.
On to TTCCAAAA, for which the “PBM E-score” value amounted to 0.0151.
As to AACGACTG, the “PBM E-score” value is -0.00169.
CGCGGGTA: the “PBM E-score” value was -0.122.
For AAATTTCC the value was 0.0298; for AGTAGGAT, 0.0173.
Consider ATGAGTTA, for which the “PBM E-score” value is 0.152.
On to GACTTCTC, for which the “PBM E-score” value was -0.166.
On to CATTGTCA, for which the “PBM E-score” value was found to be 0.0571.
In the case of CGAAAGCA it was -0.0654; in that of AGGTAGAC, -0.15.
Regarding ATAGGGTC, the “PBM E-score” value was -0.273.
CAACGTGG: the “PBM E-score” value amounted to 0.23.
For the sequence CCAACCCC, the “PBM E-score” value was -0.0968.
For ACCATTAC the value was 0.174.
Turning to TGCACCCA, the “PBM E-score” value was -0.0673.
Take GAGCGGAC: the “PBM E-score” value was -0.251.
For TATATCGA the value was 0.173; for ATTCACTA, 0.113; for GTGTACCA, 0.156.
CCAGGACC: the “PBM E-score” value is -0.313.
As for CTCGCGTA, the “PBM E-score” value worked out at 0.212.
For the sequence GATGTGGC, the “PBM E-score” value was -0.105.
On to AAAGCCCT, for which the “PBM E-score” value was -0.31.
With GCGTCCCA, the “PBM E-score” value is -0.193.
With TAGTATAA, the “PBM E-score” value came to 0.24.
CGTAAGAC: the “PBM E-score” value turned out to be 0.4.
With ATCTGGGG, the “PBM E-score” value was -0.209.
Take TGAAACAA: the “PBM E-score” value came out at 0.183.
TACGCAGA: the “PBM E-score” value was 0.274.
In the case of AACCTCCG, the “PBM E-score” value was -0.173.
For the sequence GGACAACC, the “PBM E-score” value was -0.179.
With CGAGGCCC, the “PBM E-score” value is -0.301.
Take CCCTGAGA: the “PBM E-score” value was -0.263.
For ATCCATGC, the “PBM E-score” value is -0.0946.
Turning to CCAACGTA, the “PBM E-score” value worked out at 0.387.
For the sequence AAGATCCG, the “PBM E-score” value was -0.082.
As for GGTTTAGA, the “PBM E-score” value was -0.143.
On to ACTGTGCC, for which the “PBM E-score” value is -0.0308.
In the case of CTAACGAC, the “PBM E-score” value was determined as 0.108.
In the case of ACAGAGAC it was -0.0712; in that of CGCTAAGC, -0.0386; in that of AGTCATTA, 0.032.
In the case of AGGACTGA, the “PBM E-score” value was -0.146.
Regarding ACACTCGC, the “PBM E-score” value is -0.116.
For the sequence GTAGGTCA, the “PBM E-score” value was found to be 0.079.
Take CGGTGGTA: the “PBM E-score” value is -0.154.
Regarding GCCAATCA, the “PBM E-score” value was -0.0617.
On to GAGGCAGC, for which the “PBM E-score” value is -0.2.
As to GAGTTGGA, the “PBM E-score” value is -0.0363.
In the case of GACATCCA, the “PBM E-score” value turned out to be 0.0111.
Take CATATCGC: the “PBM E-score” value was found to be 0.0243.
With GGGGGAAC, the “PBM E-score” value was -0.302.
Take ACCTGCAC: the “PBM E-score” value was -0.126.
With GAAATTGC, the “PBM E-score” value worked out at 0.133.
For the sequence GGTTACAC, the “PBM E-score” value amounted to 0.0583.
With AAACCACG, the “PBM E-score” value was found to be 0.174.
Consider CCCGAGAC, for which the “PBM E-score” value is -0.135.
As for ATTTGACG, the “PBM E-score” value is 0.359.
For GCAACTCC, the “PBM E-score” value was -0.198.
As for CCTCCCTC, the “PBM E-score” value is -0.137.
Take GAACCCAA: the “PBM E-score” value is -0.145.
On to ATCAGATG, for which the “PBM E-score” value was -0.021.
In the case of GGATCTCA, the “PBM E-score” value was -0.271.
For the sequence AATGCGGC, the “PBM E-score” value was -0.067.
For the sequence CGTGATAC, the “PBM E-score” value came to 0.234.
Turning to GTATGGGA, the “PBM E-score” value is -0.13.
In the case of GCGCGAAC, the “PBM E-score” value is -0.068.
Regarding ATTGTGCC, the “PBM E-score” value was -0.198.
For AGTGGTAG the value was -0.0361; for CAAAGTCG, -0.0592.
For ATGGTAGG, the “PBM E-score” value was -0.278.
Turning to ACCGAAAC, the “PBM E-score” value stood at 0.00583.
Take TCCAACGA: the “PBM E-score” value is 0.00689.
For CAGTACGA the value was 0.13; for CTAGATTA, 0.194.
CTTAGGGC: the “PBM E-score” value was -0.337.
On to CTATAAAC, for which the “PBM E-score” value was 0.137.
For CTACGCCC, the “PBM E-score” value was -0.0734.
For AACGGGAT the value was -0.0797.
TAGTTCGA: the “PBM E-score” value is -0.0338.
Consider AGTAGGGC, for which the “PBM E-score” value was -0.158.
With CCACCAGG, the “PBM E-score” value is -0.371.
For the sequence ACCCTTTG, the “PBM E-score” value is -0.375.
CGTTTTAC: the “PBM E-score” value amounted to 0.209.
Turning to GTGAGTAA, the “PBM E-score” value was 0.0274.
For the sequence ACGTCGCC, the “PBM E-score” value is 0.327.
